{"source": "the supplement of paper PMC8728848", "binders": {"B1": {"name": "MAA (Maackia amurensis), P0DKL3 (protein)", "chain": "MATSNSKPTQVLLATFLTFFFLLLNNVNSSDELSFTINNFVPNEADLLFQGEASVSSTGVLQLTRVENGQPQKYSVGRALYAAPVRIWDNTTGSVASFSTSFTFVVKAPNPDITSDGLAFYLAPPDSQIPSGSVSKYLGLFNNSNSDSSNQIVAVELDTYFAHSYDPWDPNYRHIGIDVNGIESIKTVQWDWINGGVAFATITYLAPNKTLIASLVYPSNQTTFSVAASVDLKEILPEWVRVGFSAATGYPTEVETHDVLSWSFTSTLEANCDAATENNVHIARYTA"}}, "assay_in_all_cases": "glycan array binding signal (z-score within array); higher = stronger binding", "conditions_in_all_cases": "glycan notation: IUPAC condensed, linker removed", "key": {"[1]": {"molecular_target": "Fuc(a1-2)Gal", "outline": "(§1)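 Negative Z-scores can be read as non-binding. The Z-score is calculated within each array and then averaged across arrays of one protein sequence at different concentrations or buffers and across linkers. Arrays, 3228 in all, were curated from the Consortium for Functional Glycomics database and kept only where the protein sequence was available.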"}, "[2]": {"molecular_target": "Fuc(a1-2)Gal(b1-3)GalNAc", "outline": "as §1"}, "[3]": {"molecular_target": "Fuc(a1-2)Gal(b1-3)GalNAc(a1-3)[Fuc(a1-2)]Gal(b1-4)Glc", "outline": "as §1"}, "[4]": {"molecular_target": "Fuc(a1-2)Gal(b1-3)GalNAc(a1-3)[Fuc(a1-2)]Gal(b1-4)GlcNAc", "outline": "as §1"}, "[5]": {"molecular_target": "Fuc(a1-2)Gal(b1-3)GalNAc(b1-3)Gal", "outline": "as §1"}, "[6]": {"molecular_target": "Fuc(a1-2)Gal(b1-3)GalNAc(b1-3)Gal(a1-4)Gal(b1-4)Glc", "outline": "as §1"}, "[7]": {"molecular_target": "Fuc(a1-2)Gal(b1-3)GalNAc(b1-4)[Neu5Ac(a2-3)]Gal(b1-4)Glc", "outline": "as §1"}, "[8]": {"molecular_target": "Fuc(a1-2)Gal(b1-3)GlcNAc", "outline": "as §1"}, "[9]": {"molecular_target": "Fuc(a1-2)Gal(b1-3)GlcNAc(b1-2)Man(a1-3)[Fuc(a1-2)Gal(b1-3)GlcNAc(b1-2)Man(a1-6)]Man(b1-4)GlcNAc(b1-4)GlcNAc", "outline": "as §1"}, "[10]": {"molecular_target": "Fuc(a1-2)Gal(b1-3)GlcNAc(b1-2)Man(a1-3)[Fuc(a1-2)Gal(b1-3)GlcNAc(b1-2)Man(a1-6)]Man(b1-4)GlcNAc(b1-4)[Fuc(a1-6)]GlcNAc", "outline": "as §1"}, "[11]": {"molecular_target": "Fuc(a1-2)Gal(b1-3)GlcNAc(b1-3)Gal(b1-4)Glc", "outline": "as §1"}, "[12]": {"molecular_target": "Fuc(a1-2)Gal(b1-3)GlcNAc(b1-3)GalNAc", "outline": "as §1"}, "[13]": {"molecular_target": "Fuc(a1-2)Gal(b1-3)GlcNAc(b1-3)[Fuc(a1-2)Gal(b1-3)GlcNAc(b1-6)]GalNAc", "outline": "as §1"}, "[14]": {"molecular_target": "Fuc(a1-2)Gal(b1-3)GlcNAc(b1-3)[Gal(b1-4)GlcNAc(b1-6)]Gal(b1-4)Glc", "outline": "as §1"}, "[15]": {"molecular_target": "Fuc(a1-2)Gal(b1-3)GlcNAc(b1-3)[Neu5Ac(a2-6)Gal(b1-4)GlcNAc(b1-6)]Gal(b1-4)Glc", "outline": "as §1"}, "[16]": {"molecular_target": "Fuc(a1-2)Gal(b1-3)GlcNAc6S", "outline": "as §1"}, "[17]": {"molecular_target": "Fuc(a1-2)Gal(b1-3)[Fuc(a1-4)]GlcNAc", "outline": "as §1"}, "[18]": {"molecular_target": "Fuc(a1-2)Gal(b1-3)[Fuc(a1-4)]GlcNAc(b1-2)Man(a1-3)[Fuc(a1-2)Gal(b1-3)[Fuc(a1-4)]GlcNAc(b1-2)Man(a1-3)]Man(b1-4)GlcNAc(b1-4)GlcNAc", "outline": "as §1"}, "[19]": {"molecular_target": "Fuc(a1-2)Gal(b1-3)[Fuc(a1-4)]GlcNAc(b1-2)Man(a1-3)[Fuc(a1-2)Gal(b1-3)[Fuc(a1-4)]GlcNAc(b1-2)Man(a1-6)]Man(b1-4)GlcNAc(b1-4)[Fuc(a1-6)]GlcNAc(b1-4)[Fuc(a1-6)]GlcNAc", "outline": "as §1"}, "[20]": {"molecular_target": "Fuc(a1-2)Gal(b1-3)[Fuc(a1-4)]GlcNAc(b1-3)[Fuc(a1-3)[Gal(b1-4)]GlcNAc(b1-6)]Gal(b1-4)Glc", "outline": "as §1"}, "[21]": {"molecular_target": "Fuc(a1-2)Gal(b1-3)[Fuc(a1-4)]GlcNAc(b1-3)[Gal(b1-4)GlcNAc(b1-6)]Gal(b1-4)Glc", "outline": "as §1"}, "[22]": {"molecular_target": "Fuc(a1-2)Gal(b1-4)Fuc(a1-3)]GlcNAc(b1-2)Man(a1-3)[Fuc(a1-2)Gal(b1-4)[Fuc(a1-3)]GlcNAc(b1-2)Man(a1-6)]Man(b1-4)GlcNAc(b1-4)GlcNAc", "outline": "as §1"}, "[23]": {"molecular_target": "Fuc(a1-2)Gal(b1-4)Glc", "outline": "as §1"}, "[24]": {"molecular_target": "Fuc(a1-2)Gal(b1-4)Glc6S", "outline": "as §1"}, "[25]": {"molecular_target": "Fuc(a1-2)Gal(b1-4)GlcNAc", "outline": "as §1"}, "[26]": {"molecular_target": "Fuc(a1-2)Gal(b1-4)GlcNAc(b1-2)Man", "outline": "as §1"}, "[27]": {"molecular_target": "Fuc(a1-2)Gal(b1-4)GlcNAc(b1-2)Man(a1-3)[Fuc(a1-2)Gal(b1-4)GlcNAc(b1-2)Man(a1-6)]Man(b1-4)GlcNAc(b1-4)GlcNAc", "outline": "as §1"}, "[28]": {"molecular_target": "Fuc(a1-2)Gal(b1-4)GlcNAc(b1-2)Man(a1-3)[Fuc(a1-2)Gal(b1-4)GlcNAc(b1-2)Man(a1-6)]Man(b1-4)GlcNAc(b1-4)[Fuc(a1-6)]GlcNAc", "outline": "as §1"}, "[29]": {"molecular_target": "Fuc(a1-2)Gal(b1-4)GlcNAc(b1-2)[Fuc(a1-2)Gal(b1-4)GlcNAc(b1-4)]Man(a1-3)[Fuc(a1-2)Gal(b1-4)GlcNAc(b1-2)Man(a1-6)]Man(b1-4)GlcNAc(b1-4)GlcNAc", "outline": "as §1"}, "[30]": {"molecular_target": "Fuc(a1-2)Gal(b1-4)GlcNAc(b1-3)Gal(b1-4)GlcNAc", "outline": "as §1"}}, "note": "The list shows a part of the results.", "data": [{"binder": "B1", "values": [{"measurement": "glycan array binding signal (z-score)", "setting": "[1]", "value": -0.205}, {"measurement": "glycan array binding signal (z-score)", "setting": "[2]", "value": -0.239}, {"measurement": "glycan array binding signal (z-score)", "setting": "[3]", "value": -0.176}, {"measurement": "glycan array binding signal (z-score)", "setting": "[4]", "value": -0.183}, {"measurement": "glycan array binding signal (z-score)", "setting": "[5]", "value": -0.146}, {"measurement": "glycan array binding signal (z-score)", "setting": "[6]", "value": -0.21}, {"measurement": "glycan array binding signal (z-score)", "setting": "[7]", "value": -0.168}, {"measurement": "glycan array binding signal (z-score)", "setting": "[8]", "value": -0.214}, {"measurement": "glycan array binding signal (z-score)", "setting": "[9]", "value": 0.018}, {"measurement": "glycan array binding signal (z-score)", "setting": "[10]", "value": -0.187}, {"measurement": "glycan array binding signal (z-score)", "setting": "[11]", "value": -0.221}, {"measurement": "glycan array binding signal (z-score)", "setting": "[12]", "value": -0.248}, {"measurement": "glycan array binding signal (z-score)", "setting": "[13]", "value": -0.196}, {"measurement": "glycan array binding signal (z-score)", "setting": "[14]", "value": -0.262}, {"measurement": "glycan array binding signal (z-score)", "setting": "[15]", "value": -0.266}, {"measurement": "glycan array binding signal (z-score)", "setting": "[16]", "value": -0.301}, {"measurement": "glycan array binding signal (z-score)", "setting": "[17]", "value": -0.223}, {"measurement": "glycan array binding signal (z-score)", "setting": "[18]", "value": -0.158}, {"measurement": "glycan array binding signal (z-score)", "setting": "[19]", "value": -0.193}, {"measurement": "glycan array binding signal (z-score)", "setting": "[20]", "value": -0.239}, {"measurement": "glycan array binding signal (z-score)", "setting": "[21]", "value": -0.177}, {"measurement": "glycan array binding signal (z-score)", "setting": "[22]", "value": -0.025}, {"measurement": "glycan array binding signal (z-score)", "setting": "[23]", "value": -0.163}, {"measurement": "glycan array binding signal (z-score)", "setting": "[24]", "value": -0.105}, {"measurement": "glycan array binding signal (z-score)", "setting": "[25]", "value": -0.188}, {"measurement": "glycan array binding signal (z-score)", "setting": "[26]", "value": -0.305}, {"measurement": "glycan array binding signal (z-score)", "setting": "[27]", "value": -0.19}, {"measurement": "glycan array binding signal (z-score)", "setting": "[28]", "value": -0.291}, {"measurement": "glycan array binding signal (z-score)", "setting": "[29]", "value": -0.059}, {"measurement": "glycan array binding signal (z-score)", "setting": "[30]", "value": -0.236}]}]}
